According to paper PMC12040169 (PLOS Biology, 2025):
The other results are listed elsewhere or left out.

What follows are molecules tested on T1, C. trachomatis L2/434/Bu expressing GFP (CTL2-GFP). Settings: total inclusion area; 28.5 h, 10 µM; inhibitor.
T1 construct: L2/434/Bu GFP intracellular growth in HeLa cells
Parameters: species or system HeLa; C. trachomatis total inclusion area by high-content imaging, normalised to DMSO
Summary of the method: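 High-content images of fixed, Hoechst-stained infected cultures supply inclusion area and count (growth) plus nuclei number (viability), complementing bulk GFP/resorufin fluorescence. MIC determination is unchanged from the primary assay.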

| Compound | % of control remaining |
| --- | --- |
| O=C(Nc1ccc2cc(Br)cnc2n1)C(F)(F)F [CBK063313] | 116.335 |
| COc1ccc(C=CC(=O)Nc2sc3c(c2C(=O)O)CCCC3)cc1OC [CBK296103] | 16.709 |
| OCC1CCCN1c1cncc(-c2ccc3c(c2)OCO3)n1 (stereo not shown) [CBK065908] | 65.1673 |
| CC(=O)Nc1ccc(S(=O)(=O)N2CCN(c3ccc([N+](=O)[O-])c(NC4CC4)c3)CC2)cc1 [CBK264439] | 114.998 |
| N=C(N)CCCOc1ccccc1-c1ccccc1 [CBK058057] | 82.8176 |
| NCCCOc1nc2ccccc2nc1N1CCCC1 [CBK115287] | 95.968 |
| CC(C)[C@@H](CO)NC(=O)c1cnc(-c2cccc(C(F)(F)F)c2)c(-c2cccnc2)c1 [CBK037520] | 126.087 |
| CC(C)C(NC(=O)c1cc2c([nH]c1=O)CCC2)c1ccc(F)cc1 (stereo not shown) [CBK281662] | 81.8291 |
| O=C(N/N=C/c1ccccc1O)c1cccc(C(=O)N/N=C/c2ccccc2O)n1 [CBK261459] | 88.6073 |
| O=C(CCN1CCN(CCO)CC1)Nc1ccc2c(c1)CCC2 [CBK264262C] | 99.0628 |
| CN1CCN(S(=O)(=O)c2ccc(N3CCOCC3)nc2)CC1 [CBK062434] | 117.977 |
| c1ccc2sc(SCc3nc4c5c6c(sc5ncn4n3)CCCC6)nc2c1 [CBK262923] | 94.8245 |
| CCN(CCc1ccccn1)S(=O)(=O)c1ccc(OC(F)(F)F)cc1 [CBK044968] | 43.1313 |
| O=S(=O)(NCC(c1ccccc1)n1cc(-c2ccccc2)nn1)c1ccccc1 (stereo not shown) [CBK268244] | 112.186 |
| FC(F)(F)c1cccc(CC2CSC(=S)N2)c1 (stereo not shown) [CBK022895] | 6.741 |
| Cc1cc(C)n(-c2cccc(C(=O)NCCn3ccnc3)c2)n1 [CBK281585] | 81.7853 |
| CC(C)(CN1CCCC1)NC(=O)N1CCN(Cc2cccc(O)c2)CC1 [CBK307380] | 72.7207 |
| COc1cc(/C=N/NC(=O)c2ccncc2)ccc1OCc1ccc(Cl)cc1 [CBK262454] | 90.891 |
| COc1ccc(OCCNC(=O)c2cc(Br)cnc2N2CCOCC2)cc1 [CBK076214] | 101.893 |
| O=C(C1=C(O)C(=O)N(Cc2cccnc2)C1c1cccnc1)c1cccs1 (stereo not shown) [CBK264547] | 112.936 |
| C#CCOC(=O)NC(=O)c1csnn1 [CBK006685] | 75.1422 |
| COc1ccc([C@@]23CC[C@@H](NC(=O)Nc4ccc(C)c(F)c4F)C[C@@H]2N(C)CC3)cc1OC [CBK073686T] | 92.5983 |
| COc1cccc2cc(-c3cncn3CCCC(C)(C)CO)oc12 [CBK281817] | 89.0379 |
| Cc1csc2c(C3CCN(C(=O)c4ccnn4C)CC3)nc(C)n12 [CBK285249] | 87.6424 |
| CC(C)(C)c1nsc(NC2CCCCCC2)n1 [CBK075061] | 94.5642 |
| O=C(Nc1cccc(CCc2ccccn2)c1)c1ccc([N+](=O)[O-])cc1 [CBK269653] | 91.7179 |

| Compound | % of control remaining |
| --- | --- |
| c1csc(COc2nccnc2-c2ccsc2)c1 [CBK106770] | 97.6462 |
| O=C(NC1Cc2ccccc2C1)c1ccno1 [CBK200358] | 104.518 |
| O=C(CCNS(=O)(=O)c1ccccc1Cl)N1CCN(C(=O)C2CC2)CC1 [CBK306025] | 67.9196 |
| CS(=O)(=O)N(CC(=O)NCc1ccccn1)c1ccc2c(c1)OCO2 [CBK269385] | 82.4701 |
| CCC(O)CN1CCCC(c2nc3cc(C)ccc3[nH]2)C1 (stereo not shown) [CBK304854] | 73.0946 |
| C(=C\c1ccccc1)/CN1CCN(CCc2ccccc2)CC1 [CBK261893] | 87.8724 |
| c1ccc(C(Nc2ncc(-c3cnccn3)c(-c3ccco3)n2)c2ccccc2)cc1 [CBK286413] | 99.5996 |
| S=C(NCCC(c1ccccc1)c1ccccc1)Nc1ccc(Cl)c(Cl)c1 [CBK263972] | 78.7807 |
| COCCCN(Cc1cc(F)cc(F)c1)Cc1ccccn1 [CBK282975] | 94.2499 |
| CC(C)c1ccc(S(=O)(=O)Nc2ccc(OC(F)F)cc2)cc1 [CBK044565] | 76.5852 |
| Cc1ccc(O)c(NC(=O)Cn2nc([N+](=O)[O-])c(Br)c2C)c1 [CBK261718] | 99.2696 |
| CCCn1cc(S(=O)(=O)N2CCCC2c2ccc(Nc3cccc(C)n3)cn2)c(C)n1 (stereo not shown) [CBK286258] | 113.586 |
| CS(=O)(=O)c1ccc(-c2ccc(C(=O)NCc3cccc(C(F)(F)F)c3)cn2)cc1 [CBK158874] | 75.2553 |
| Cc1cc(O)cc(C2CCCN(C(=O)c3cccc(F)c3)C2)n1 (stereo not shown) [CBK283440] | 71.308 |
| S=C(NCC1CCCCC1)Nc1ncc(Cl)cc1Cl [CBK067053] | 93.0481 |
| CN(C(=O)CN1CCCCC1Cn1cccn1)C1(C#N)CCCCC1 (stereo not shown) [CBK305412] | 118.72 |
| O=C(O)C1CCN(S(=O)(=O)c2ccccc2[N+](=O)[O-])CC1 [CBK265267] | 108.022 |
| CN(C)[C@@H]1CN(Cc2ccccc2O)C[C@H]1c1cn(C)c2ccccc12 [CBK284895] | 97.6368 |
| COc1cc(C(=O)N2CCCC3(CCN(C(=O)c4ccoc4)C3)C2)cc(OC)c1OC (stereo not shown) [CBK131637] | 80.1989 |
| O=C(NCc1csc2c1CCCC2)N1CC(c2ccccn2)C1 [CBK307499] | 79.2767 |
| Nn1c(=O)c2ccccc2n2c(SCC(=O)N(c3ccccc3)c3ccccc3)nnc12 [CBK266621] | 130.297 |
| COc1cc(OC)c(C(C)=O)c(OCCOc2nccnc2N2CCNCC2)c1 [CBK013497T] | 100.698 |
| CN(C)C(=O)c1cc(-c2ccccc2)cnc1N(C)S(C)(=O)=O [CBK076473] | 90.9522 |
| CCCC(=O)Nc1ccc(N2CCNCC2)c2ccccc12 [CBK024619T] | 103.109 |
| CC(CC(=O)NC1(C#Cc2nccs2)CCCCC1)n1ccnc1 (stereo not shown) [CBK284746] | 64.3609 |
| CC(C)(C)NC(=O)CN1CCN(C(=O)CSc2n[nH]c(=O)n2C2CC2)CC1 [CBK295641] | 78.1234 |
